# About 65 (0.1%) of roughly 45,000 compounds were called active. The call rests on the fitted dose curve; in most records, active means well fitted activation curve with a large enough effect; inconclusive means small, poorly fitted or top-dose-only effect; inactive means no such curve, though single readings can be large or run the other way. The list shows a part of the results.
# Molecular target: Galactocerebrosidase (Homo sapiens) (UniProt P54803)
# Experiment: A Novel Cell-Based Assay to Identify Small Molecules for B -Galactocerebrosidase; further: 0% is about no effect; nearly all actives have a fitted effect of over 65% in size
# Conditions: 145M-Twi-hGALC-G270D cells (Twitcher mouse brain line with human GALC G270D), HMU-beta-Gal fluorescence, 48 h; series mostly up to 57.5 µM; activation: at the top concentration
# Method in brief: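 Mutant human GALC (G270D), stably expressed in a Twitcher mouse brain cell line lacking endogenous GALC, is measured in live-treated cells via 6-hexadecanoylamino-4-methylumbelliferyl-β-galactoside hydrolysis (0.1 mM final, pH 5.2) with fluorescent detection.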
# Sequence of UniProt P54803 (P54803 whole entry, looked up): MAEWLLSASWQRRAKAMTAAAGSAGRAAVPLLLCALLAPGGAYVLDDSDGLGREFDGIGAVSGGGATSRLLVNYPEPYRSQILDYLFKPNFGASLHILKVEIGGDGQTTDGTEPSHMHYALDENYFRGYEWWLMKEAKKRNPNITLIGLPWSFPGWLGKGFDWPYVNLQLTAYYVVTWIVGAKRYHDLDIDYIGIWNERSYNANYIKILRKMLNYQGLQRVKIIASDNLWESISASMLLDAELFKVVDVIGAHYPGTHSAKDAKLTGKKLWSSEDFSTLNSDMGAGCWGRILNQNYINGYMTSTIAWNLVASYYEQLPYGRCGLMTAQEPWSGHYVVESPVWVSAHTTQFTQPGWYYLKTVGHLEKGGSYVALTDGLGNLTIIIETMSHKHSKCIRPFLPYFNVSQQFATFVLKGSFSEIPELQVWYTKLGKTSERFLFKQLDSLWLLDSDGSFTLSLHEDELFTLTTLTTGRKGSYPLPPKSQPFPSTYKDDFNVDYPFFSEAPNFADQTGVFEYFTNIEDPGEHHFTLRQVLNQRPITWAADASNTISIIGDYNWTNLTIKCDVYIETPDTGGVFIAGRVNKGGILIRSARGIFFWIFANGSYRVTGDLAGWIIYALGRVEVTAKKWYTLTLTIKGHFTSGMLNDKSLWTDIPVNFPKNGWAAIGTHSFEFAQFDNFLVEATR
row,SMILES,activation
1,CC(=O)c1ccc(N2CCN(c3nc4c(S(=O)(=O)c5ccccc5)nnn4c4ccc(Cl)cc34)CC2)cc1,inactive: -12.6%
2,COc1ccc(S(=O)(=O)c2cn(C)c3cc(N4CCCCC4)c(F)cc3c2=O)cc1,inactive: -9.33%
3,Cc1c(-c2nsc(NC(=O)c3ccc(Cl)cc3)n2)nnn1-c1ccc(C(C)C)cc1,inactive: -24.1%
4,COc1ccc(N2CCN(CCCNC(=O)C3COc4ccc(OC)cc4C3)CC2)cc1 (stereo unspecified),inactive: -6.13%
5,COc1ccc2c(CNCc3ccc(Cl)cc3)c(C(=O)O)n(Cc3ccccc3C)c2c1,inactive: -18.3%
6,CCc1cccc2c(-c3ccccc3)nc(SCC(=O)Nc3ccccc3)nc12,inactive: -15%
7,O=C(Cn1cc(SCc2ccc(C(F)(F)F)cc2)c2ccccc21)N1CCCCC1,inactive: -15.4%
8,CC(CC(=O)NCc1ccc(Cl)cc1)CC1=NS(=O)(=O)c2ccccc2N1 (stereo unspecified),inactive: -18.3%
9,COc1ccc(-c2cc(C)no2)cc1S(=O)(=O)NCc1ccc(OC(C)C)cc1,inactive: 0.951%
10,Cc1cccc2nc(-c3cccnc3)c(Nc3ccc(C(C)C)cc3)n12,inactive: -27.8%
11,Cc1cc(C)cc(NC(=O)CSc2nccn2-c2ccccc2)c1,inactive: -18.2%
12,O=C(NC1CC(=O)N(c2ccccc2)C1)C1CCCCC1 (stereo unspecified),inactive: -12.8%
13,Cc1cc(Br)ccc1NC(=O)c1cc2c(=O)n(C)c3cc(Cl)ccc3c2s1,inactive: -18.6%
14,Cc1cccc(NC(=O)C2CCN(S(=O)(=O)c3cccc4nsnc34)CC2)c1C,inactive: -6.72%
15,COc1ccc(NC(=O)C2=C(C)Nc3nc(SCc4ccccc4C)nn3C2c2ccc(Br)cc2)cc1 (stereo unspecified),inactive: -11.5%
16,Cc1cc(C)c2oc(C(=O)N(Cc3ccc(F)cc3)C3CCS(=O)(=O)C3)cc(=O)c2c1 (stereo unspecified),inactive: -14.1%
17,CSc1ccc(CCNc2ncnc3onc(C)c23)cc1,inactive: 9.9%
18,COc1ccc(S(=O)(=O)N2CCC(c3ccncc3)CC2)cc1Cl,inactive: -37.3%
19,CN(C(=O)c1cc(-c2ccccc2O)on1)c1ccccc1,inactive: -13.3%
20,CCCCOc1c(Cl)cc(C(=O)N(Cc2ccc(C)o2)C2CCS(=O)(=O)C2)cc1Cl (stereo unspecified),inactive: -10.6%
21,COc1ccc(C(CNC(=O)COc2ccc(C)cc2)N2CCCCC2)cc1 (stereo unspecified),inactive: -29.5%

row,SMILES,activation
1,CN(C(=O)Cn1c(=O)n(CCCS(=O)(=O)C2CCCCC2)c(=O)c2ccccc21)c1ccccc1,inactive: -9.45%
2,COc1ccccc1NC(=O)c1c(NCc2sccc2C)sc2c1CCCCC2,inactive: -19.7%
3,CCOC(=O)c1c(C)oc2ccc(N(C(=O)Oc3ccccc3)S(=O)(=O)c3ccccc3)cc12,inactive: -5.03%
4,CCN1CCN(C(c2ccc(OC)cc2)c2c(O)cc(C)n(CCOC)c2=O)CC1 (stereo unspecified),inactive: -11.9%
5,CCOc1ccc(/C=C(\C#N)c2nc(-c3cc4ccccc4oc3=O)cs2)c(OCC)c1,inactive: 1.22%
6,CCOc1cc(-c2nc(-c3ccc(-c4ccc(C)cc4)nc3OC)no2)cc(OCC)c1OCC,inactive: -12.7%
7,COc1ccc(C2C=C(c3ccccc3)Nc3nc(NC(=O)c4ccc(C)cc4)nn32)cc1 (stereo unspecified),inactive: -8.91%
8,COc1ccc(Cl)cc1NC(=O)Cn1c2ncccc2c(=O)n1-c1ccc(C)c(C)c1,inactive: -18%
9,Cc1cc(C)cc(N(CC(=O)Nc2cccc(C)c2C)S(=O)(=O)c2c(C)[nH]c(=O)[nH]c2=O)c1,inactive: -8.78%
10,COc1ccc2c(CNCc3ccc(C)o3)c(C(=O)O)n(Cc3ccccc3)c2c1,inactive: 3.77%
11,Cc1cc(NS(=O)(=O)c2ccc(NC(=O)COc3ccc(Cl)cc3)cc2)nc(C)n1,inactive: -16.4%
12,Cc1ccc(NC(=O)Nc2nnc(N(C)Cc3ccccc3)s2)cc1,inactive: -11.8%
13,COC(=O)c1ccc(Cl)cc1NC(=O)N1CC(C)Oc2ccccc21 (stereo unspecified),inactive: -15.9%
14,Cc1ccc(-n2nc3c(=O)n(CC(=O)Nc4ccccc4F)nc(C)c3c2C)c(C)c1,inactive: -1.95%
15,CCOC(=O)c1ccc(NC(=O)c2cc3cc(C)ccc3n2C)cc1,inactive: -10.7%
16,COC1=C(OC)C(=O)C(CCCCCCCCCCO)=C(C)C1=O,inactive: -9.46%
17,Cc1ccc(C)c(NC(=O)CSc2nnc(CNC(=O)c3ccccc3)n2-c2ccccc2)c1,inactive: -18.5%
18,CCOc1ccc(NC(=O)c2ccc(CN3C(=O)C(C)=C(c4ccc(C)cc4)S3(=O)=O)cc2)cc1,inactive: -11.1%
19,CC(=O)Nc1ccc(NC(=O)CCc2c(C)nc3c(c(C)nn3-c3ccc(C)cc3)c2C)cc1,inactive: -11.6%
20,CCN(CC)S(=O)(=O)c1nnc(NC(=O)COc2ccc(C)cc2)s1,inactive: 5.45%
21,CC(=O)Nc1ccccc1-c1nc2ccccc2n(C(C)C(=O)Nc2cc(Cl)ccc2C)c1=O (stereo unspecified),inactive: -14.5%

row,SMILES,activation
1,COc1ccc(CN2CCCN(CC(=O)Nc3cc(C)ccc3C)S2(=O)=O)cc1,inactive: -15%
2,CCOC(=O)c1sc(N2C(=O)c3oc4cc(C)c(C)cc4c(=O)c3C2c2ccc(C)cc2)nc1C (stereo unspecified),inactive: -6.32%
3,O=C(Nc1ccccc1Cl)c1ccc(F)c(S(=O)(=O)NCc2ccc(Cl)c(Cl)c2)c1,inactive: -8.9%
4,CCC(=O)Nc1ccccc1-c1nc2ccccc2n(Cc2cccc(Br)c2)c1=O,inactive: -7.66%
5,CC(C)n1c(/C=C/[C@@H](O)C[C@@H](O)CC(=O)O)c(-c2ccc(F)cc2)c2ccccc21,inactive: -0.748%
6,Cn1c(=O)c2sccc2n2c(CCCC(=O)Nc3ccc(Cl)cc3)nnc12,inactive: -11.8%
7,Cc1ccc(-n2ncc3c(N4CCCCC4)ncnc32)cc1Cl,inactive: -13.1%
8,COc1ccc(-c2cc(OC(=O)c3ccccc3C)c3c(C)oc(C)c3c(=O)c2)cc1,inactive: -10.4%
9,CCc1cccc(C)c1NC(=O)c1cc(S(=O)(=O)N(C)Cc2ccccc2)ccc1F,inactive: -21.2%
10,CCOC(=O)c1c(C)oc2nc(C)nc(Nc3cc(C)cc(C)c3)c12,inactive: -12.4%
11,CCc1ccc2oc(C(=O)NCC(c3ccc(Cl)cc3)N3CCOCC3)c(C)c2c1 (stereo unspecified),inactive: -12.2%
12,CC(=O)N1CCCc2cc(S(=O)(=O)N(CCN(C)C)Cc3ccccc3)ccc21,inactive: -15.2%
13,Cc1csc2nc(COC(=O)c3ccc(F)cc3)cc(=O)n12,inactive: -28.2%
14,O=C(CSc1nc2ccccc2n1Cc1ccc(F)cc1)N1CCN(c2ccc(F)cc2)CC1,inactive: -5.72%
15,COc1ccc(CNC(=O)CSCc2nc(-c3ccccc3F)oc2C)cc1,inactive: -13.6%
16,Cc1nnc(N2CCC(C(=O)NCCc3ccccc3)CC2)c2nn(-c3ccccc3)c(C)c12,inactive: -14.1%
17,O=C(Nc1ccc(OCc2cc(=O)n3ccsc3n2)cc1)c1ccc(F)cc1,inactive: 0.243%
18,CCc1ccc(-c2nc(CN3CCC(C(=O)NCCc4ccc(C)cc4)CC3)c(C)o2)cc1,inactive: -9.16%
19,Cc1cccc(N(CC(=O)NCc2ccccc2)S(C)(=O)=O)c1C,inactive: -11.7%

# Source: PubChem BioAssay AID1159614 (National Center for Advancing Translational Sciences (NCATS), 2016)
